Results: US20240358818A1, “ANTIBODY-INDUCING POLYPEPTIDE AND VACCINE” (priority 2021, published 2024)
No end group written: not given here.

Test system: pseudotyped lentivirus having the SARS-COV-2 spike protein
Assay type: cell-based
Conditions: mouse antiserum, final dilution 45-, 90-, 180-fold; FIG. 8

| Sequence | protection of ACE2-expressing CRFK cells from pseudovirus infection (luciferase activity) |
| --- | --- |
| ELDSFKEELDKYFKNHTS (also: conjugate) [#111] | prevent pseudovirus infection in a concentration-dependent manner |
| YGVSPTKLNDLCF (also: conjugate) [#5] | no inhibitory activity on pseudovirus infection was observed |
